Out of some 45,000 compounds screened, about 65 (0.1%) were called active. Calls come from the whole dose curve; as a rule, active = well fitted activation curve with a large enough effect; inconclusive = small, poorly fitted or top-dose-only effect; inactive = no such curve, though single readings can be large or run the other way. The list shows a part of the results.
Target: Galactocerebrosidase (Homo sapiens) (UniProt P54803)
Experiment: A Novel Cell-Based Assay to Identify Small Molecules for B -Galactocerebrosidase; note: 0% is about no effect; nearly all actives have a fitted effect of over 65% in size
Conditions: 145M-Twi-hGALC-G270D cells (Twitcher mouse brain line with human GALC G270D), HMU-beta-Gal fluorescence, 48 h; series mostly up to 57.5 µM; activation: at the top concentration
In short: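 Live 145M-Twi cells (Twitcher mouse brain-derived, GALC-null) stably expressing human GALC-G270D, with a wild-type GALC line, were compound-treated. Residual GALC activity was then read as fluorescence from 0.1 mM final HMU-β-gal at pH 5.2; higher signal means activation.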

Chain of UniProt P54803 (P54803 whole entry, looked up): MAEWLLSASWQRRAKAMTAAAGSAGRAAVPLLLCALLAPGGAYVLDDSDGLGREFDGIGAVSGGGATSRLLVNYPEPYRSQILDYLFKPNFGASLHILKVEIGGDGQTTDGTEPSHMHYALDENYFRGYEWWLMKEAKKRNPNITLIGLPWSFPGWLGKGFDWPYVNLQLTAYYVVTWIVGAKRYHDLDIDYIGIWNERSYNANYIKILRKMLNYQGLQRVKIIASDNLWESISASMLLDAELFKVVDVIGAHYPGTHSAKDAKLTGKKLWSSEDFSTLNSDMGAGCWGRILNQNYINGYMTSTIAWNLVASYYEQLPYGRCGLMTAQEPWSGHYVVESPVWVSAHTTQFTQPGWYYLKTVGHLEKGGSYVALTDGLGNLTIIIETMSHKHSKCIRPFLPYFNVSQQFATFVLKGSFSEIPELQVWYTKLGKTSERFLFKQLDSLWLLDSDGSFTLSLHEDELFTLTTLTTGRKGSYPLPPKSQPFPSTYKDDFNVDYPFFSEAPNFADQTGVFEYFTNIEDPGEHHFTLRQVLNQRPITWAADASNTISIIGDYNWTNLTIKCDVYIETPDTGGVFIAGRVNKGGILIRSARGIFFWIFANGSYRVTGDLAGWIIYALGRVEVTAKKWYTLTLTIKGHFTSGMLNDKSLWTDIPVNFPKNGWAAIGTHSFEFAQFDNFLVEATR

activation, inactive:
Cc1oc(-c2ccc(C(=O)Nc3ccc(F)cc3F)cc2)nc1COc1ccccc1 -9.31%
CCC(=O)Nc1ccccc1-c1nc2ccccc2n(C(CC)C(=O)Nc2cccc(C(C)=O)c2)c1=O (configuration not stated) -6.43%
CCCCN(CC)CCCn1cnc2c([nH]c3ccc(Cl)cc32)c1=O 1.4%
CC(C)(C)C1CCc2nc(NC(=O)COc3ccc(F)cc3)sc2C1 (configuration not stated) -17.4%
Cn1cc(C(=O)O)c(=O)c2cc(S(=O)(=O)N3CCCCC3)ccc21 -17.7%
Cc1ccc(CN2C(=O)c3ccccc3S(=O)(=O)c3ccc(C(=O)OCC4CCCO4)cc32)cc1 (configuration not stated) -4.55%
Cc1ccc(NC(=O)C(Cc2ccccc2)NS(=O)(=O)c2ccc3c(c2)c(=O)n(C)c(=O)n3C)cc1 (configuration not stated) -13.4%
CCN(C(=O)c1cc(S(=O)(=O)N2CCOCC2)cn1C)c1ccc(OC)cc1 -8.78%
CCOc1nc(NC(=O)NS(=O)(=O)Oc2ccc(Cl)cc2)nc(-c2ccccc2)n1 -13%
CCCC(=O)Oc1c(Sc2ccc(Cl)cc2)c(C)nn1-c1ccccc1 -25.7%
Cn1c(SCC(=O)Nc2ccc(F)cc2)nc2c([nH]c3ccccc32)c1=O 17.3%
COc1cccc(-c2cc(C(=O)NCc3ccccc3)[nH]n2)c1 -11.6%
CN(C)C(=O)c1ccc2c(c1)N(CC(=O)NCc1ccc(F)cc1)C(=O)C1CCCCN21 (configuration not stated) -14.1%
CC(=O)c1ccc(NC(=O)Cn2c(-n3nc(C)cc3C)nc(C)cc2=O)cc1 -13.1%
COc1ccc(CCNC(=O)CCn2c(=O)c3ccccc3n(CC(=O)Nc3cccc(C)c3)c2=O)cc1OC -10.7%
COc1cc(OC)cc(-c2nnc(SCC(=O)N3CCC(C)CC3)o2)c1 -10.1%
Cc1cc(C(C#N)c2ccc(Cl)cc2)c(Cl)cc1NC(=O)c1cc(I)cc(I)c1O (configuration not stated) -20.4%
Cc1ccc2c(c1)cc1c(=O)n(CC(=O)NCc3ccco3)nc(C)n12 -17%
COc1ccc(OC)c(C2C(C(N)=O)=C(C)Nc3nc(-c4cccc(Cl)c4)nn32)c1 (configuration not stated) -15.3%
Cc1cccn2c(=O)c3cc(C(=O)NCCc4ccc(S(N)(=O)=O)cc4)n(C)c3nc12 -2.12%
CC(C)(C)c1ccc(OCC(=O)N(Cc2ccco2)Cc2ccccc2F)cc1 -12%
COc1ccc(Nc2ncc(C(=O)Nc3cc(C)ccc3OC)c3ccccc23)cc1 -0.865%
Cc1ccc(-n2nc(C)c3c(C)cc(=O)n(CC(=O)NCc4ccc(OC(C)C)cc4)c32)cc1 9.12%
O=C(COc1ccc(F)cc1)Nc1cccc(OCc2cc(=O)n3ccccc3n2)c1 -15.1%
COc1ccc(F)cc1NC(=O)C1CCN(c2nc(-c3ccc(OC)c(OC)c3)no2)CC1 -9.95%
FC(F)(F)c1ccc(C2=Nc3ccccc3NC(c3cccs3)=N2)cc1 -6.64%
Cc1ccc(NC(=O)c2ccc(=O)n(CC(=O)Nc3cc(C)cc(C)c3)n2)cc1 -5.88%
COc1ccc(-c2noc(C(C)NC(=O)c3ccco3)n2)cc1 (configuration not stated) -32.3%
Cc1ccc(OCC(=O)Nc2c(Cl)ccc3nsnc23)cc1C -31.4%
Cc1cccc2c1-c1sc(C(=O)NCCCN3CCN(c4cccc(Cl)c4)CC3)cc1CO2 -8.74%
Fc1ccc(-n2ncc3c(Nc4ccc(Oc5ccccc5)cc4)ncnc32)cc1 -8.26%
COc1ccc(NC(=O)CCc2c(C)nc3c(-c4ccccc4)c(C)nn3c2C)cc1Cl -37.5%
Cc1ccc2c(c1)c1c(c(=O)n(-c3ccccc3C)c(=O)n1Cc1ccccc1F)n2C -6.72%
Cn1c(C(=O)NCc2ccc(Cl)cc2)cc2c(=O)n(C)c3ccccc3c21 0.552%
Cc1ccc(Cl)cc1NC(=O)Cn1c(=O)oc2cc(S(=O)(=O)N3CCCCCC3)ccc21 -14.9%
CC(=O)c1cccc(Nc2c3c(nc4nc(-c5cccs5)nn24)CCCC3)c1 -6.8%
CC(=O)Nc1cccc(-c2nnc(SCC(=O)c3cc([N+](=O)[O-])ccc3Br)o2)c1 -5.36%
COc1cc(C(c2c(C)[nH][nH]c2=O)c2c(C)[nH][nH]c2=O)ccc1OC(=O)c1ccccc1F -15.6%
Cc1ccc(CNC(=O)C2CCN(c3nc4ccc(C)cc4[nH]3)CC2)cc1 -16.3%
COC(=O)c1ccc2oc(=O)c(S(=O)(=O)c3ccc(C)cc3)cc2c1 -5.42%
CCCC(=O)Nc1cccc(-c2nc3cc(C)c(C)cc3o2)c1C -8.62%
CC(=O)Nc1ccc(NC(=O)CSc2nnc3c4cc(Br)ccc4n(C)c3n2)cc1 -36.5%
COc1ccc(CNC(=O)c2ccc(Sc3ccc(Cl)cc3)c(NC(C)=O)c2)c(OC)c1 -6.75%
Cc1ccc2c(c1)c1c(c(=O)n(-c3cccc(Cl)c3)c(=O)n1C)n2C -5.47%
CCSc1ncc(Cl)c(C(=O)Nc2sc(C(C)=O)c(C)c2C(=O)OC)n1 -15.6%
COc1cc(OC)c(NC(=O)c2cnc(N3CCCC3)nc2C)cc1Cl -13.1%
CCc1cccc(NC(=O)c2c(C)oc3ncnc(N4CCCCC4)c23)c1 -21.5%
CCOC(=O)c1c(NC(=O)c2cc3nc(-c4ccc(OC)cc4)cc(C(F)(F)F)n3n2)sc(C)c1C -5.44%
COc1ccc(C(=O)c2oc3ccccc3c2NC(=O)c2nc(SC)ncc2Cl)cc1Cl -13.5%
O=C1CN(C(=O)COc2ccc(Cl)cc2Cl)C(c2ccc(F)cc2)c2cc(F)ccc2N1 (configuration not stated) -15.6%
CCN(CC)C(=O)CSc1nnc2[nH]c(=O)cc(C)n12 -21.4%
CCOC(=O)N1CCc2c(sc(NCc3cccs3)c2C(=O)Nc2cc(OC)ccc2OC)C1 1.13%
CCOC(=O)c1nnn(C(CC)C(=O)Nc2c(C)cccc2C)c1C(=O)OCC (configuration not stated) -22.4%
CC(C)c1ccc(Nc2cc(C(=O)NCc3cccs3)c3ccccc3n2)cc1 -7.48%
CCOc1ccc(-c2cccc(NS(=O)(=O)c3ccc(Cl)s3)c2)nn1 -15.6%
CCc1ccccc1NC(=O)CCCN1C(=O)COc2ccc(C)cc21 -1.7%
CCNc1nc(Oc2ccc(OCC(=O)OC)nn2)nc(N2CCOCC2)n1 -17.1%
CCOc1ccc2nc(N3CCCC(C(=O)NCc4ccc(OC)cc4)C3)sc2c1 (configuration not stated) -5.78%
Cc1ccc(NC(=O)N2CCN(c3nnc(C)c4c(C)n(-c5ccccc5)nc34)CC2)c(Cl)c1 -17.3%
CCc1ccc(-c2ccc3nnc(SCC(=O)Nc4cccc(C(C)=O)c4)n3n2)cc1 -21.1%
CCCNC(=O)Cn1c(=O)cc(C)c2c(C)nn(-c3cccc(F)c3)c21 -1.89%
COc1cc(Cl)c(C)cc1NC(=O)NC1COc2ccccc2C1 (configuration not stated) -2.71%
Cc1cccc(Oc2nc3c(c(=O)n(C)c(=O)n3C)n2C)c1C -16.9%
Cc1ccccc1-c1nn2c(=O)cc(CN3CCN(C(=O)c4ccccc4Br)CC3)nc2s1 -12.9%
N#Cc1c(-c2ccccc2)cc(-c2ccccc2)nc1SCC(=O)Nc1ccc(Cl)cc1 -15.1%
CCOC(=O)N1CCN(C(=O)c2cnn(-c3cccc(F)c3)c2-n2cccc2)CC1 -7.5%
CCc1ccccc1NC(=O)C(CCSC)NS(=O)(=O)c1ccc2c(c1)oc(=O)n2C (configuration not stated) -0.871%
COc1ccc(CCNC(=O)Cn2c(-c3cccs3)cc3cc(F)ccc32)cc1OC -24.5%
Cc1onc(-c2ccccc2)c1C(=O)Cl -14.8%
COc1cccc(CNC(=O)c2ccc(CS(=O)c3ccccc3)o2)c1 (configuration not stated) 7.54%
COc1ccc(CCNC(=O)CN2C(=O)COc3ccccc32)cc1OC -28.4%
COc1ccc(NC(=O)c2oc3ccccc3c2NC(=O)c2cc(OC)c(OC)c(OC)c2)cc1 13.6%
COc1ccccc1OCC(=O)Nc1cc(-c2ccc(C)cc2)no1 -20.7%
Fc1cccc(CSc2nc(NCCc3ccccc3)c3ccccc3n2)c1 7.04%
Oc1c(C(c2ccc(Cl)cc2)N2CCOCC2)sc2nc(-c3ccco3)nn12 (configuration not stated) -5.18%
CC1CCN(S(=O)(=O)c2ccc3nc(N4CCN(c5ccccc5)CC4)ccc3c2)CC1 -13.9%
COc1cc(NS(=O)(=O)c2cccs2)cc(OC)c1 -11.6%
CC(=O)c1cc(-c2ccc(F)cc2)n(CC(=O)NCc2ccc(C)cc2)c1C -14.2%
CCN(CC)c1ccc(NC(=O)c2sc3nc(-c4ccccc4)cn3c2C)cc1 -12.1%
CCCn1c2ccccc2c2cnn(CC(=O)NCCc3cc(OC)ccc3OC)c(=O)c21 -4.77%
CCOC(=O)c1cccc(NC(=O)NCc2ccc3c(c2)CCN3C(=O)CC)c1 -9.17%
Cc1nc(-c2ccc(F)cc2)sc1CCNC(=O)C(=O)Nc1ccc2c(c1)OCO2 -6.13%
Cc1ccc(CSc2ncccc2C(=O)O)cc1 -9.72%
Cc1ccc(S(=O)(=O)N2CCCc3cc(NC(=O)c4ccc(C(C)(C)C)cc4)ccc32)cc1 -3.08%
COc1cccc(-c2nc(CS(=O)(=O)CC(=O)NCCCc3ccccc3)c(C)o2)c1 -19.2%
CCCN(C(=O)NCc1noc2ccc(C)cc12)c1ccc(Cl)c(Cl)c1 -7.69%
CC1=C(C(=O)Nc2cccc(C(F)(F)F)c2)C(c2ccccn2)n2ncnc2N1 (configuration not stated) -22.3%
CCc1ccc(C(=O)c2cn(CC(=O)Nc3ccc(OC)c(Cl)c3)c3nc(C)ccc3c2=O)cc1 0.242%
Cc1ccc(Cl)cc1NC(=O)Cn1cc(S(=O)(=O)Cc2ccccc2Cl)c2ccccc21 -6.98%
CCC(=O)Nc1ccccc1-c1nc2ccccc2n(CC(=O)c2ccc(Br)cc2)c1=O 5.91%
COc1ccc(N2CCN(C(=O)c3nn(C)c4c3CSc3ccccc3-4)CC2)cc1 -9.32%
Cc1cn([C@H]2C[C@H](N=[N+]=[N-])[C@@H](CO)O2)c(=O)[nH]c1=O -8.82%
CCCc1cc(=O)[nH]c(SCc2nc(-c3ccc(OC)cc3)no2)n1 12.2%
Cc1cc(C)cc(OCC(=O)NCC2(N3CCOCC3)CCCCC2)c1 -1.2%
O=C(Cn1c(SCCOc2ccccc2Cl)nc2ccccc21)N1CCCCC1 -33%
O=C(C1CCN(c2ncnc3c2nc2n3CCCCC2)CC1)N1CCN(c2ccccc2)CC1 4.99%
CCOC(=O)c1ccccc1NC(=O)c1sc2ncn(CC)c(=O)c2c1C -9.71%

— PubChem BioAssay AID1159614 (National Center for Advancing Translational Sciences (NCATS), 2016)
